Patent US20220175728A1, “PHARMACEUTICAL USE OF CHLOROPHYLLIDE FOR ANTI-VIRAL INFECTION” (I-SHOU UNIVERSITY, priority 2020, published 2022)

Test system: African green monkey kidney Vero cells infected with dengue
Experiment: Gene expression profile by next generation sequencing, dengue-infected Vero cells
Type: cell-based
Conditions: dengue plus chlorophyllide relative to dengue-infected Vero cells

chlorophyllide was tested, and the “Log2 fold change, ABCC1” value (gene ABCC1) was −2.058, the “Log2 fold change, ACSL3” value (gene ACSL3) was −1.699 and the “Log2 fold change, AGRN” value (gene AGRN) was −1.539. For the same substance, the “Log2 fold change, ATP2A2” value (gene ATP2A2) was −2.280, the “Log2 fold change, BMPR2” value (gene BMPR2) was −1.641 and the “Log2 fold change, CALR” value (gene CALR) was −1.590. For the same substance, the “Log2 fold change, COL4A4” value (gene COL4A4) was −1.660, the “Log2 fold change, DAG1” value (gene DAG1) was −1.806 and the “Log2 fold change, DNAJC3” value (gene DNAJC3) was −2.131. For the same substance, the “Log2 fold change, EGFR” value (gene EGFR) was −1.680, the “Log2 fold change, EIF2AK3” value (gene EIF2AK3) was −1.719 and the “Log2 fold change, EPHA2” value (gene EPHA2) was −1.661. For the same substance, the “Log2 fold change, FN1” value (gene FN1) was −3.808, the “Log2 fold change, FTL” value (gene FTL) was 1.194 and the “Log2 fold change, HMGCR” value (gene HMGCR) was −2.042. For the same substance, the “Log2 fold change, HSP90B1” value (gene HSP90B1) was −2.359, the “Log2 fold change, HSPG2” value (gene HSPG2) was −2.242 and the “Log2 fold change, IL6ST” value (gene IL6ST) was −1.880. The “Log2 fold change, ITGA1” value (gene ITGA1) was −1.762, the “Log2 fold change, NEO1” value (gene NEO1) was −1.905 and the “Log2 fold change, NOTCH2” value (gene NOTCH2) was −2.195. The “Log2 fold change, NRP1” value (gene NRP1) was −1.611, the “Log2 fold change, PDIA3” value (gene PDIA3) was −1.563 and the “Log2 fold change, PLIN2” value (gene PLIN2) was 1.440. The “Log2 fold change, RELN” value (gene RELN) was −2.398, the “Log2 fold change, SCD” value (gene SCD) was −1.735 and the “Log2 fold change, SLC7A1” value (gene SLC7A1) was −2.059. The “Log2 fold change, TFRC” value (gene TFRC) was −1.925 and the “Log2 fold change, VCAN” value (gene VCAN) was −3.721.
